# Results as given in the supplement of paper PMC3334620.
# Over roughly 33,000 sequences, “E-score (-0.5 to 0.5)” has its median near -0.041; the highest 2% begin near 0.37. Some of the results follow.
# Target: T1, Ecm22 (UniProt Q05958)
# T1 sequence: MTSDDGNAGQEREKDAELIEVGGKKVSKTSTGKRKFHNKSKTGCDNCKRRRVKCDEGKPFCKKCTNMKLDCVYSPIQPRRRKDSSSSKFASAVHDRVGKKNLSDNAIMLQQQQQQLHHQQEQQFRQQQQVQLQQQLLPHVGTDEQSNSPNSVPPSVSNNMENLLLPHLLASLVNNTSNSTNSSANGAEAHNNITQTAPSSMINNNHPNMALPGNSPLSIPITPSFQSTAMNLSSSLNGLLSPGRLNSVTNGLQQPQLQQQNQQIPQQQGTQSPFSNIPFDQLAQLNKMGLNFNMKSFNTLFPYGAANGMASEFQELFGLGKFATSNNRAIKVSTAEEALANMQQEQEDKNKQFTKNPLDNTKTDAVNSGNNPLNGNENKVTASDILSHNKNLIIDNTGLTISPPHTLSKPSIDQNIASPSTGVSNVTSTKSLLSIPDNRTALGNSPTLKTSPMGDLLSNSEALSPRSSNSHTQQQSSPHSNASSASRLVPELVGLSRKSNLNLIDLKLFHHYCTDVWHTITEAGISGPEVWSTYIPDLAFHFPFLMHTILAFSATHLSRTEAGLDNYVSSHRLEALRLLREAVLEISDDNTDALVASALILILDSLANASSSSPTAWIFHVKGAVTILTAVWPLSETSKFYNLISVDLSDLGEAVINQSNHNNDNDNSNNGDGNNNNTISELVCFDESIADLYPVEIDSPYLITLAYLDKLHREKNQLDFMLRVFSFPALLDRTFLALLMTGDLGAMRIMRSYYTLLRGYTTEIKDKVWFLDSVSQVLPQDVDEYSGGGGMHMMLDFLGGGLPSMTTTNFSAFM
# Assay: PBM E-score (8-mer binding enrichment) (E-score (-0.5 to 0.5)); higher = stronger / more preferred TF binding; most listed sequences are background and not binding sites
# Settings: protein concentration: 200 nM; construct: GST-full length
# Method in brief: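 Detection of bound protein used fluorescent anti-GST, with scans normalised by masliner. The proteins were GST-tagged yeast transcription factors applied at about 100-200 nM to universal all-10-mer Agilent arrays made double-stranded by primer extension. Each ungapped eight-base word, pooled with its reverse complement, was scored with an E-score from the Universal PBM Analysis Suite.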
row,Sequence,PBM E-score
1,CCCATGGG,-0.0959
2,GTATACTA,0.173
3,ACCATGGG,-0.239
4,GCAGGTAC,0.1
5,ACCCACAG,-0.0711
6,CAGACGTC,-0.239
7,CAGAAATC,-0.19
8,CGCGAATA,0.225
9,CCGTGAAC,-0.0691
10,CGATTTTA,0.0853
11,CAGCGGGA,-0.188
12,ACGATTTC,0.236
13,AGATCGAT,-0.201
14,AGAAAATC,-0.00706
15,ACACACCG,0.0636
16,AGTCTCTG,-0.131
17,ATCAAGTC,-0.00766
18,ATACGGAC,0.362
19,AAGAAAAC,0.0702
20,ATATCGAA,0.0195
21,ACGATCTC,0.239
22,AAGGTTCT,-0.155
23,CCTGGTTC,-0.101
24,CTATGTCC,-0.25
25,CCTAGGCA,-0.218

row,Sequence,PBM E-score
1,ATGTACTG,-0.091
2,ACGTTAGC,0.0731
3,CAGTAAAC,0.195
4,CTCAGGTA,-0.131
5,ACGGCTCC,0.126
6,ATTAATAC,0.0519
7,ACAACGAC,0.295
8,GAGGCCTC,0.0714
9,ATATTAAA,0.159
10,CGGTACCA,-0.0083
11,CTTTACGA,0.464
12,AAAAAGGA,-0.0219
13,CCTGAAGC,-0.283
14,TGTTAAAA,-0.0602
15,ACGCAGGC,-0.00144
16,TAAGGTGA,-0.0341
17,AAGTCCTG,-0.321
18,CGAAGTAG,0.126
19,CTCGTAAG,0.44
20,GCATGTAC,0.17
21,GGTGAGCA,-0.129
22,CATAGCAA,-0.196
23,AGGCGGAT,-0.21
24,GCGGTGGA,0.0731
25,CCTTACTC,-0.0985

row,Sequence,PBM E-score
1,ATTGCGAC,0.179
2,CACTTCTC,0.0323
3,CGGCTGAG,-0.121
4,CTCCCGAG,0.163
5,CGAGTGCA,0.128
6,AGCTTATC,-0.056
7,GGGAACCA,-0.215
8,GAAAGGCC,-0.122
9,GGGGACTA,-0.242
10,CTGGTACA,-0.0942
11,CAAAACAG,-0.0366
12,AACTGTTG,-0.219
13,GATTCCCC,-0.205
14,GAAGTCGA,-0.104
15,ATGGTTTG,-0.14
16,AAGCCGCA,0.0536
17,ATAGCAGA,-0.147
18,AGCCAAGC,-0.174
19,GCTCTCAA,-0.0248
20,TGCTCCCA,-0.0821
21,GGGTGCCA,-0.0378
22,CTAGGTCC,-0.0845
23,AGCCACCG,-0.0608
24,GAACACCC,-0.121
25,GCGACAGA,0.0945

row,Sequence,PBM E-score
1,TTGTACAA,-0.0655
2,AGGTAAAA,-0.0767
3,CTACAAAA,-0.0702
4,GCAGCTGA,-0.0826
5,AATCTTTG,-0.0601
6,AATTTATC,0.17
7,AGTAAAGA,-0.225
8,ACCTGGAC,-0.232
9,AATCGGAG,-0.0617
10,CTAGATAC,0.226
11,CAAGACAA,-0.127
12,AAAACTAT,-0.0456
13,ATGGCCCG,-0.0899
14,AAGGCTCA,-0.26
15,AAGTTGCC,-0.0243
16,GCTGACAC,-0.09
17,ACATCATG,-0.209
18,AGGGGTCA,-0.179
19,CATTCGTA,0.407
20,TACTCTAA,-0.0365
21,AGCGGGGG,-0.308
22,CAGGCGAA,-0.0615
23,AATAGTAA,-0.12
24,CGGCGAGC,0.175
25,GCGATAAA,0.154

row,Sequence,PBM E-score
1,ACTGGGAG,-0.206
2,CCTGCAAG,-0.0692
3,CGAAGACA,0.146
4,AGGCACTG,-0.151
5,AGAGCCCT,-0.155
6,TGACGGAA,0.0325
7,AACGCGCT,0.0935
8,CCACTGGC,-0.267
9,GCAAATTA,0.012
10,CACGGCTA,-0.118
11,GCGAGATA,0.273
12,AACTATCG,0.176
13,TCGGACCA,0.109
14,CTATGACC,0.0115
15,AGGGCTAA,-0.225
16,ACTAGCTA,-0.00683
17,ACGAGAGC,0.399
18,CGATCAAG,-0.12
19,AGTTACTA,0.0475
20,GACTAGGA,-0.262
21,GAGCAACA,-0.138
22,CTGGCCTA,-0.168
23,AGTTCTTC,0.049
24,ACTACACG,0.17
25,ATCTTTTG,0.122

row,Sequence,PBM E-score
1,GCGCTTTA,0.0513
2,CCTTTCGA,0.142
3,CGCTTCAA,0.099
4,GAAAGCAC,0.108
5,ATGAATCG,0.149
6,ACACTTAG,-0.14
7,GCAGTGGA,-0.126
8,GATTACGA,0.336
9,AGCGGGAC,-0.137
10,GACTGCCC,-0.176
11,GATGGAGC,-0.0438
12,AAGGCTAA,0.00013
13,CCCAGATC,-0.128
14,GTTTGTAA,0.12
15,ACATTCTG,-0.0862
16,CAAGAGTC,-0.0935
17,GCATAACC,-0.00363
18,ATACCCGG,-0.0336
19,CAGACAAA,0.0367
20,CACTGGGG,-0.267
21,ATGGAAAC,-0.128
22,CCTGCAGA,-0.0769
23,GCGTCGTA,0.471
24,AACCGCCC,-0.0423
25,CACAATGC,-0.161

row,Sequence,PBM E-score
1,CTACACAA,0.151
2,GGCACCCA,-0.168
3,CCTCCATA,-0.058
4,ATAGCCGG,-0.08
5,CCTAACTA,-0.133
6,CGCTCCCA,0.0876
7,CGAGTTAG,0.205
8,GACAGGGA,-0.0415
9,AAAGCGTT,-0.0373
10,CCCGTAGG,-0.158
11,ACAGGACA,0.0711
12,CGCACTGA,-0.0509
13,ACCCGCCG,0.0245
14,GCTAAGGA,-0.164
15,AGGCATTG,0.0314
16,AGTATCGA,-0.00208
17,ACACCCAA,-0.0552
18,GGACACTA,-0.118
19,CGACAGCG,0.171
20,TACGAATA,0.43
21,ACCTGTTA,-0.0441
22,CTCACCGA,0.00921
